# From the supplement of paper PMC6531468
# The other results are listed elsewhere or left out. Read counts after selection give these values, which scatter widely. Scores sum up all selected molecules that hold the word; the word was not tested alone.
# Tested on: IMP3 KH1-4
# Assay: 6-mer SELEX enrichment z-score vs GST control; IMP3 is the RNA-binding protein IGF2BP3; higher = more enriched by binding
# Conditions: construct: KH1-4 (164-579); SELEX round: R4
# Procedure: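 SELEX-seq with GST-tagged IMP3 KH1-4 (Pro164-Lys579) and an N40 RNA pool, round 4. 6-mer z-score of sequence-tag enrichment normalised to the corresponding GST SELEX round; RNA k-mers written as DNA (T for U).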
# Chain of IMP3 KH1-4 (chain, as listed by the source): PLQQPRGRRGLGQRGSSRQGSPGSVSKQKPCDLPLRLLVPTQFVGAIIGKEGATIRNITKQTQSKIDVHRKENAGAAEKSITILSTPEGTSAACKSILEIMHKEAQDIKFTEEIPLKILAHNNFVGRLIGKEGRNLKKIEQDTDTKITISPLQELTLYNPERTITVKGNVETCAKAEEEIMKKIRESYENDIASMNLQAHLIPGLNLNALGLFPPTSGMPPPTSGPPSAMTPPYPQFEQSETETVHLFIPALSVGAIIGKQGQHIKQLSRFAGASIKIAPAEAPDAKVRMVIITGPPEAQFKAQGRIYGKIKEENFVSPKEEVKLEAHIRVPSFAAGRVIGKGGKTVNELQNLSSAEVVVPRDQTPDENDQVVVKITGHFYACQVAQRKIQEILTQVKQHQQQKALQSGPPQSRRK
row,Sequence,6-mer SELEX enrichment z-score
1,ATCACA,2.23
2,TGGAGC,-0.873
3,GGATTC,0.398
4,GTCTTT,0.01
5,AGGCCT,-0.037
6,ACACAA,1.81
7,CCGATT,-0.264

# Tested on: IMP3 RRM1-2
# Assay: as above
# Conditions: construct: RRM1-2 (1-163); SELEX round: R2
# Procedure: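 SELEX-seq with GST-tagged IMP3 RRM1-2 (Met1-Asn163) and an N40 RNA pool, round 2. 6-mer enrichment z-score normalised to GST SELEX. RNA written as DNA (T = U).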
# Chain of IMP3 RRM1-2 (chain, as listed by the source): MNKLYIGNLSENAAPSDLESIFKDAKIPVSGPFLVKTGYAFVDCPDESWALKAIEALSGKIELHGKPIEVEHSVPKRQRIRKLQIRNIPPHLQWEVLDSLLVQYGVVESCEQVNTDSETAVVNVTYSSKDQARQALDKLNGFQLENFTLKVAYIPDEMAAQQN
row,Sequence,6-mer SELEX enrichment z-score
1,AATACA,0.771
2,TGGATT,0.172
3,CCGCTG,-0.305
4,CTCGTG,0.192
5,TGTTAC,0.106
6,CGGCTC,0.515
7,TGCCCG,-0.329
8,ACATCT,0.699
9,CTCTTG,0.472
10,AACGTC,-0.292
11,GCACCG,-0.136
12,ACATAT,1.58
13,TAGTCA,0.406
14,GCAATC,1.2
15,ATAACA,0.746
16,GGGGGA,-0.13

row,Sequence,6-mer SELEX enrichment z-score
1,GGCTGT,0.328
2,GCGACC,-0.417
3,GCACTA,0.4
4,TGAAGA,-1.12
5,ACATAA,1.54
6,ATCCGA,-0.83
7,TTCGAG,0.115
8,TGAGCG,-0.425
9,CGATCC,-0.602
10,CGTTGA,-0.335
11,GTAACA,0.092
12,ACAATA,0.615
13,TCAAAC,0.922
14,AGATGT,-0.401
15,GAGCGG,-0.129
16,CAGTTA,0.228
